Results published in the supplement of paper PMC7826260.
Some of the results follow. One pool of 16,384 single-stranded DNAs met each Rep nickase domain in vitro (1 h at 37 °C, 3 µM enzyme); the outer parts of the 90-letter strands are left off. Numbers give uncut DNA relative to the enzyme-free pool, as log2; uncut sequences lie near 0, cut ones below; no hit call is given. Reads are scaled to the total; values above 0 arise when much of the pool is cut.

Experiments:
Test in all cases: uncleaved DNA left, log2 of reads against the no-enzyme library (log2 ratio); higher = less cleavage (more negative = more Rep cleavage of the k-mer); sequences stand for … in CTCGTCCG…ACCGGAGA
[1] = tested on: T1, Rep nickase domain of Muscovy duck circovirus
T1 sequence (residues 1-111 of Rep, tag left off): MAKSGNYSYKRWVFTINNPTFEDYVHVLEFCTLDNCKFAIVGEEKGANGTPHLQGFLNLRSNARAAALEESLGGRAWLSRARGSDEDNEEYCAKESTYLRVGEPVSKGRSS
Experimental: (§1)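 A pool of 90-nt single-stranded DNAs with seven random bases just before the constant AC of the nick site (name = the seven bases) was cut by 3 µM recombinant His6-SUMO-tagged Rep nickase domain (300 nM DNA, 50 mM HEPES pH 8.0, 50 mM NaCl, 1 mM MnCl2, 1 h, 37 °C, three replicates). Uncut DNA was amplified and sequenced.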

[2] = tested on: T2, Rep nickase domain of banana bunchy top virus
T2 sequence (residues 1-94 of Rep, tag left off): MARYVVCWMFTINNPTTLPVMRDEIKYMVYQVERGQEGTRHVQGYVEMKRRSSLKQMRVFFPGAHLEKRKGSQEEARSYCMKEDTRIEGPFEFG
Experimental: as §1

[3] = tested on: T3, Rep nickase domain of cabbage leaf curl virus
T3 sequence (residues 1-116 of Rep, tag left off): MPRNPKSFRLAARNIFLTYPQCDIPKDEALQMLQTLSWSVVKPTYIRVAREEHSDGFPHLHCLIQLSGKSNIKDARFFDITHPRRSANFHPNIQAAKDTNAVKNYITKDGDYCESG
Experimental: as §1

[4] = tested on: T4, Rep nickase domain of chickpea chlorotic dwarf virus
T4 sequence (residues 1-124 of Rep, tag left off): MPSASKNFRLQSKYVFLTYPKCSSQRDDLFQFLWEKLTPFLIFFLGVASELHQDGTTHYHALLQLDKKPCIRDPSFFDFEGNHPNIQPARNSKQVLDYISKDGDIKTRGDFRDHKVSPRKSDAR
Experimental: as §1

[5] = tested on: T5, Rep nickase domain of faba bean necrotic yellows virus
T5 sequence (residues 1-98 of Rep, tag left off): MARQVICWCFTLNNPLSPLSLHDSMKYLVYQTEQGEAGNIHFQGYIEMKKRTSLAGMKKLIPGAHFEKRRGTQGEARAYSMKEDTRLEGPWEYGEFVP
Experimental: as §1

[6] = tested on: T6, Rep nickase domain of maize striate mosaic virus
T6 sequence (residues 1-117 of Rep, tag left off): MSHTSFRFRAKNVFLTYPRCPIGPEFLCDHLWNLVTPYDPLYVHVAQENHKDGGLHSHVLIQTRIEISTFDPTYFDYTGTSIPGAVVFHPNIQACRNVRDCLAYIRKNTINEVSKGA
Experimental: as §1

[7] = tested on: T7, Rep nickase domain of porcine circovirus 2
T7 sequence (residues 2-116 of Rep, tag left off): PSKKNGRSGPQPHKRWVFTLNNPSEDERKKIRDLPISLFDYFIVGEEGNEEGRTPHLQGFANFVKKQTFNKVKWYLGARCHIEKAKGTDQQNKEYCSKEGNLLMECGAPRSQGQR
Experimental: as §1

[8] = tested on: T8, Rep nickase domain of tomato golden mosaic virus
T8 sequence (residues 1-124 of Rep, tag left off): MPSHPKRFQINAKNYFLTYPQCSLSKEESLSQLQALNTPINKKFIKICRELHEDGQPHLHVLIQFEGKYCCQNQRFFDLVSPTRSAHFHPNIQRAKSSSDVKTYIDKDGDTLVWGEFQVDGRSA
Experimental: as §1

[9] = tested on: T9, Rep nickase domain of tomato yellow leaf curl virus
T9 sequence (residues 1-136 of Rep, tag left off): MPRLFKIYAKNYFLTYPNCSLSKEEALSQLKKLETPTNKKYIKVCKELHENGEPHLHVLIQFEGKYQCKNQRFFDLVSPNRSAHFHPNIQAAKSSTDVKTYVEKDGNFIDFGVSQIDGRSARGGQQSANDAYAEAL
Experimental: as §1

[10] = tested on: T10, Rep nickase domain of wheat dwarf virus
T10 sequence (residues 1-137 of Rep, tag left off): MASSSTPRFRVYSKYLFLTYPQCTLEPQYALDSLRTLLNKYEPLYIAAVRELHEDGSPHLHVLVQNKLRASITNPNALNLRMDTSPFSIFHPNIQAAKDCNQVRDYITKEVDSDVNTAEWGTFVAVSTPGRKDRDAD
Experimental: as §1

Sequence | uncleaved DNA left (log2) [1] | uncleaved DNA left (log2) [2] | uncleaved DNA left (log2) [3] | uncleaved DNA left (log2) [4] | uncleaved DNA left (log2) [5] | uncleaved DNA left (log2) [6] | uncleaved DNA left (log2) [7] | uncleaved DNA left (log2) [8] | uncleaved DNA left (log2) [9] | uncleaved DNA left (log2) [10]
GGCAGGT | 0.0545 | 0.0125 | 0.498 | 1.23 | 0.0279 | 1.74 | 0.116 | 0.0224 | 0.16 | 0.176
ACGGCTT | -0.057 | -0.0509 | -0.281 | -0.988 | -0.0706 | -0.127 | 0.0849 | 0.0526 | -0.0973 | -0.0699
TCGAGCC | -0.00738 | -0.000936 | 0.0782 | 0.402 | 0.00504 | -0.0704 | -0.578 | -0.0759 | -0.0249 | 0.0314
TGGGAAG | 0.201 | 0.0877 | 0.296 | 0.771 | 0.179 | 0.332 | 0.196 | 0.13 | 0.000104 | 0.0965
CTGGCTC | 0.13 | 0.109 | 0.127 | 0.0617 | -0.056 | 0.294 | 0.152 | -0.0689 | 0.00611 | -0.0883
CTGGGAG | 0.00207 | -0.0447 | -0.409 | -0.181 | -0.0592 | -0.836 | 0.161 | 0.133 | 0.0249 | -0.0104
ATTGGGC | 0.00197 | -0.104 | -0.538 | -0.696 | -0.124 | -0.929 | 0.046 | -0.15 | -0.0928 | -0.166
ACATTGG | 0.00457 | 0.0552 | -0.769 | -0.0333 | 0.0543 | -1.02 | 0.174 | -0.00257 | 0.16 | -0.0269
TTTACCC | -0.217 | 0.102 | 0.116 | -2.03 | 0.0593 | 0.00864 | -1.04 | -0.0483 | 0.114 | 0.00949
TTCGTCC | -0.0036 | -0.191 | 0.079 | -0.359 | -0.118 | -0.452 | -0.267 | -0.165 | -0.241 | -0.268
CGCCAGA | 0.0232 | 0.0645 | 0.0988 | 0.158 | -0.0326 | -0.31 | 0.156 | 0.0249 | 0.0416 | 0.0741
AGGGGTA | 0.0343 | 0.00108 | 0.209 | 1.15 | 0.0956 | 1.5 | 0.222 | 0.162 | -0.0761 | 0.102
CGAGGAA | -0.0123 | 0.0391 | 0.22 | 0.835 | -0.0283 | 0.871 | -0.0543 | -0.0819 | -0.096 | -0.0646
ATTGAAA | 0.126 | 0.00392 | -0.00354 | 0.183 | -1.57e-05 | -0.516 | 0.0542 | 0.023 | -0.0379 | 0.0495
CTCACTC | 0.00302 | -0.0593 | 0.0261 | -0.738 | -0.0674 | -0.707 | 0.0242 | -0.152 | -0.0601 | 0.021
TACTTCA | -1.61 | -0.331 | -0.348 | -2.47 | -0.0557 | -0.664 | -3.15 | -0.0992 | 0.0986 | 0.0442
TAGGCGG | 0.14 | 0.115 | 0.374 | 0.671 | 0.131 | 0.671 | 0.187 | 0.069 | -0.157 | -0.00293
ATGCGTG | 0.0387 | 0.0801 | -0.486 | -0.304 | -0.125 | -0.923 | 0.0572 | 0.019 | -0.00695 | 0.00267
ACCCGGG | 0.129 | 0.0216 | 0.255 | 0.847 | 0.0143 | 0.0527 | 0.289 | 0.0681 | 0.164 | 0.0334
CTCGAAC | -0.0298 | -0.153 | -0.0472 | -0.475 | -0.0818 | -0.731 | 0.0241 | -0.0499 | -0.076 | -0.194
GAGCTGT | -0.116 | -0.122 | 0.115 | 1.24 | -0.207 | 1.43 | -0.384 | 0.00983 | -0.173 | -0.132
CCAACCG | -0.063 | 0.0755 | -0.663 | -1.08 | 0.0983 | -0.74 | -0.00211 | 0.00871 | 0.000841 | -0.0504
GTCCCGC | 0.0345 | 0.134 | 0.324 | 0.734 | 0.083 | 1.24 | 0.0817 | 0.0945 | 0.111 | 0.0875
CCTAACG | 0.0279 | -0.0404 | -0.712 | -0.237 | -0.0854 | -1.05 | 0.0651 | -0.0396 | -0.0945 | 0.0181
ATGACGT | -0.063 | 0.0393 | -0.0293 | 0.0421 | -0.0926 | -0.299 | -0.00516 | 0.0951 | -0.0483 | 0.0336
CGAACTG | -0.0245 | 0.0418 | 0.0667 | 0.708 | 0.0588 | 1.74 | 0.0238 | -0.0125 | 0.049 | 0.107
TAAGGTA | 0.117 | 0.0714 | 0.0879 | -0.191 | 0.0185 | 1.56 | 0.0198 | 0.127 | -0.126 | -0.0436
ACTGTAG | 0.0772 | 0.08 | -0.629 | -0.508 | 0.149 | -1.09 | 0.196 | 0.168 | 0.136 | 0.0342
ACGAGGG | 0.0266 | -0.104 | -0.516 | -0.198 | 0.156 | -0.96 | 0.185 | 0.138 | -1.79e-05 | -0.0488
AATCTCA | -0.0157 | 0.0308 | -0.211 | -1.59 | -0.0557 | 0.21 | -0.123 | -0.0621 | 0.00763 | 0.0277
